# Reference: paper PMC10601815, “αβ,α′β′-Diepoxyketones are mechanism-based inhibitors of nucleophilic cysteine enzymes” (Chemical Communications (Cambridge, England), 2023)
# Biological target: SARS-CoV-2 Mpro (Severe acute respiratory syndrome coronavirus 2, UniProt P0DTD1)
# Assay: SARS-CoV-2 Mpro inhibition assay (37mer peptide substrate, SPE-MS)
# Type: biochemical
# Design: the main protease from SARS-CoV-2 (M^pro); made in house
# Conditions: 15 min pre-incubation, 150 nM Mpro, 2 µM 37mer peptide
Compound,pIC50 Mpro,IC50 [µM]
"O=C(c1ccccc1)C1OC1c1ccccc1 (racemic) [Epoxide 12, reference compound]",< 4.4,
COc1ccccc1C1OC1C(=O)C1OC1c1ccccc1OC (mixture of isomers) [DEK 5],< 4.4,
O=C(C1OC1c1ccc(OC(F)(F)F)cc1)C1OC1c1ccc(OC(F)(F)F)cc1 (stereo not shown) [DEK 4],< 4.4,
O=C(C1OC1c1ccccc1OC(F)(F)F)C1OC1c1ccccc1OC(F)(F)F (stereo not shown) [DEK 6],< 4.4,
O=C1C2(CCCCC13OC3c1ccccc1)OC2c1ccccc1 (stereo not shown) [DEK 11],< 4.4,
Cc1cccc(C)c1C1OC1C(=O)C1OC1c1c(C)cccc1C (mixture of isomers) [DEK 8],< 4.4,
O=C1C2(CCC13OC3c1ccccc1)OC2c1ccccc1 (stereo not shown) [DEK 9],5.9 ± 0.2,
Cc1cc(C)cc([C@@H]2O[C@H]2C(=O)[C@@H]2O[C@H]2c2cc(C)cc(C)c2)c1 (relative stereo) [DEK 7],< 4.4,
O=C([C@H]1O[C@@H]1c1ccccc1)[C@@H]1O[C@H]1c1ccccc1 [DEK 1],,25.1
O=C1C2(CCCC13OC3c1ccccc1)OC2c1ccccc1 (stereo not shown) [DEK 10],< 4.4,
